Experimental data from PubChem BioAssay AID1466 (National Center for Advancing Translational Sciences (NCATS), 2008).
Out of some 200,000 compounds screened, about 10 (0.005%) were called active. Inconclusive means that the source gave no clear call. Such entries were picked first, then a sample of the others. Calls come from the whole dose curve; as a rule, active = well fitted inhibition curve with a large enough effect; inconclusive = small, poorly fitted or top-dose-only effect, or effect the other way, or another doubt; inactive = no such curve, though single readings can be large or run the other way. No potency is given beside an inconclusive call; the fits are too rough.

What follows are molecules tested against Lysosomal alpha-glucosidase (Homo sapiens) (UniProt P10253) (assay: qHTS Assay for Inhibitors of Human alpha-Glucosidase as a Potential Chaperone Treatment of Pompe Disease). Settings: purified human GAA, 4-MU-alpha-glucoside fluorescence; activity change, negative = inhibition: at 76.9 µM (top of the series) unless noted.
In short: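 Enzyme (4 nM final) mixed with compound (up to 77 uM), then 4-MU-alpha-D-pyranoside (400 uM final) added; 20 min at room temperature, pH 5.0. Reaction stopped at pH 10, fluorescence read, AC50 derived by Hill fit.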
Potency is the fitted concentration of half-maximal effect; tags give direction and shape of the fitted curve.
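Throughout, for activity change, negative = inhibition: plate controls were uninhibited enzyme wells for no effect and no-enzyme background for full effect.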

| SMILES | activity change, negative = inhibition | Potency |
| --- | --- | --- |
| COC(=O)C(NS(=O)(=O)c1ccccc1Cl)c1ccccc1 (centres undefined) | inconclusive: 3.22% [activator] |  |
| Brc1ccc(C2=Nc3ccccc3C(c3ccncc3)=NN2)cc1 |  | inconclusive [inhibitor, single point] |
| COc1ccc(N2CCN(C(=O)NC34CC5CC(CC(C5)C3)C4)CC2)cc1 |  | inconclusive [inhibitor, single point] |
| CCN(CC)S(=O)(=O)c1cccc(NC(=O)c2ccc(-n3nc(C)cc3C)cc2)c1 |  | inconclusive [inhibitor, partial curve] |
| CCOC(O)[C@H]1N[C@@H](c2ccc(Cl)cc2)[C@@H]([N+](=O)[O-])[C@@H]1c1ccccc1 (some centres undefined) |  | inconclusive [inhibitor, partial curve, poor fit] |
| Oc1nc(Nc2ccc(Cl)cc2Cl)sc1/C=C1\C=Nc2ccccc21 |  | inconclusive [inhibitor, partial curve] |
| O=c1ccc(S(=O)(=O)N2CCC(Cc3ccccc3)CC2)c[nH]1 |  | inconclusive [inhibitor, partial curve] |
| Cc1ccccc1N1C(=O)CC(N(O)c2ccccc2)C1=O (centres undefined) |  | inactive |
| CCCOc1ccc(N)cc1N |  | inconclusive [inhibitor, single point] |
| Clc1cccc(-c2cc3nc4c(c(N5CCN(c6cnccn6)CC5)n3n2)CCCC4)c1 |  | inconclusive [inhibitor, partial curve] |
| COc1ccc(Cn2c(N)c(C#N)c3nc4ccccc4nc32)cc1OC |  | inconclusive [activator, partial curve] |
| CCOc1cc(NC(=S)NCC2CCCO2)c(OCC)cc1NC(=O)c1cccc(F)c1 (centres undefined) | inconclusive: 16.9% [activator] |  |
| Cc1ccc(/C=C/C(=O)NCCc2c[nH]c3ccccc23)o1 | inconclusive: -15.9% [inhibitor] |  |
| CC(=O)Nc1ccc(-n2nnnc2SCC(=O)NCc2cccs2)cc1 | inconclusive: 17.8% [activator] |  |
| CCCCCn1c(=O)[nH]c2cc(C(=O)O)ccc2c1=O |  | inconclusive [activator, partial curve] |
| Oc1ccccc1CNc1nc2ccccc2n1CCN1CCCCC1 |  | inconclusive [inhibitor, partial curve] |
| O/N=C1\CCCc2nnc3c(c21)CCCC3 |  | inactive |
| Cc1cccc(-n2c(SCC(=O)Nc3ccc4c(c3)OCO4)nnc2-c2ccoc2C)c1 |  | inconclusive [inhibitor, partial curve] |
| N#Cc1c(N)sc2c1CCCCCC2 |  | inactive |
| CC1(C)CC(=O)C(C(=S)Nc2ccc(F)cc2)=C(NCCN2CCOCC2)C1 |  | inconclusive [inhibitor, single point] |
| COCCOC(=O)c1[nH]c2c(c1C)C(=O)CC(c1ccco1)C2 (centres undefined) |  | inactive |
| O=C(CCc1nnc(CCCc2ccccc2)o1)NCCN1CCOC1=O | inconclusive: 15.4% [activator] |  |

| SMILES | activity change, negative = inhibition | Potency |
| --- | --- | --- |
| Cc1ccc(OCC(=O)NCc2ccco2)c([N+](=O)[O-])n1 | inconclusive: 14.3% [activator] |  |
| O=C(Nc1cc2c(cc1Br)OCCO2)c1cccs1 |  | inconclusive [inhibitor, single point] |
| Cn1cnc([N+](=O)[O-])c1Sc1ccc(Br)cc1 |  | inconclusive [inhibitor, partial curve] |
| CSCC[C@H](NC(=O)NC1CCCC1)C(=O)O | inactive: -5.49% [at 15.4 µM] |  |
| O=C(Nc1ccccc1-c1nnc(SCc2ccc(Cl)cc2)o1)c1ccccc1 |  | inconclusive [inhibitor, full curve, poor fit] |
| S=c1[nH]nc(-c2ccco2)n1/N=C/C(Cl)=C/c1ccccc1 |  | inconclusive [inhibitor, full curve] |
| COc1cc(C(C)=O)ccc1Oc1ncnc2c1cnn2-c1ccc(F)cc1 |  | inactive |
| O=C(O)c1cc(-c2cccs2)nc2cc3c(cc12)OCCO3 |  | inconclusive [activator, partial curve] |
| CN(C)c1cc(N/N=C\c2ccccc2)nc(N(C)C)n1 |  | inactive |
| O=C(C1CCN(S(=O)(=O)c2cnc[nH]2)CC1)N1CCN(c2ncccn2)CC1 |  | inconclusive [inhibitor, single point] |
| CCCCSc1nc2c(cnn2-c2ccc(C)c(C)c2)c(=O)[nH]1 |  | inconclusive [inhibitor, full curve, poor fit] |
| CCC(CC)C(=O)N1CCN(Cc2nc3ccccc3c(=O)[nH]2)CC1 |  | inconclusive [inhibitor, single point] |
| Cc1ccc(S(=O)(=O)N2CCC(C(=O)N3CCC[C@H]3C(=O)NCc3ccccc3)CC2)cc1 |  | inconclusive [inhibitor, single point] |
| COc1ccc(OC)c(S(=O)(=O)Nc2ccccc2SC)c1 |  | inconclusive [inhibitor, single point] |
| Cc1nc2c(ccc3c2ccc2nc(C)sc23)s1 |  | inactive |
| CCCN(Cc1ccccc1)S(=O)(=O)c1ccc(N2C(=O)CCC2=O)cc1 |  | inconclusive [inhibitor, single point] |
| CCN(CC)S(=O)(=O)c1ccc2oc(C(=O)O)c(C)c2c1 |  | inconclusive [inhibitor, full curve, poor fit] |
| CCc1cc2c(=O)c(Oc3ccccc3F)c(C)oc2c(CN(C)C)c1O |  | inconclusive [activator, partial curve] |
| Cc1ccc(NC(=O)CSc2nnc(CNC(=O)c3ccccc3F)o2)cc1 |  | inactive |
| CCn1c(=N)c(C(=O)OC)cc2c(=O)n3ccccc3nc21 |  | inconclusive [activator, partial curve] |
| COc1ccccc1NC(=O)CSc1nc2c(sc3ccccc32)c(=O)n1CCN(C)C |  | inconclusive [activator, partial curve] |
| CC(C)(C)NC(=O)c1cc(C(C)(C)C)c(O)c(C(C)(C)C)c1 |  | inactive |
